Assay results published in patent US12064407B2 (priority 2017, dated 2024).

Tested on: ERVK Env
Type: cell-based, human

Row | Substance | Env protein expression in SVGA cells
1 | LIGHT: lymphotoxin-like inducible member of the TNF superfamily protein, pro-inflammatory cytokine | not induced
2 | TNFα | not induced
